PubChem BioAssay AID624296 (National Center for Advancing Translational Sciences (NCATS), 2012)
Out of some 350,000 compounds screened, about 9,900 (2.8%) were called active. Inconclusive results, whose numbers are uncertain, are shown with a selection of clear calls. Calls follow the shape of the dose curve; as a rule, active = well fitted activation curve with a large enough effect; inconclusive = small, poorly fitted or top-dose-only effect; inactive = no such curve, though single readings can be large or run the other way. Potencies of inconclusive entries are left out as doubtful fits.

assay: A quantitative high throughput screen for small molecules that induce DNA re-replication in MCF 10a normal breast cells.; also: nearly all actives have a fitted effect of over 50% in size; as to activity, positive = re-replication: % of control where 0% means no effect; details: MCF 10A DNA re-replication, Hoechst nuclear intensity, 48 h; activity, positive = re-replication: at 46.1 µM (top of the series)
Potency is read from the fitted curve at half-maximal effect; tags tell the direction and shape of the fitted curve.

Structure (SMILES) | Potency | activity, positive = re-replication
COc1ccc(/C=N/NC(=O)c2ccc(N)cc2)cc1Cn1cc([N+](=O)[O-])cn1 | inconclusive [activator, single point] | –
Cc1cccc2c1-c1sc(C(=O)Nc3cccc([N+](=O)[O-])c3C)cc1CO2 | inconclusive [activator, partial curve, poor fit] | –
CCOC(=O)c1c(NC(=O)CCC(=O)O)sc2c1CC(C)(C)OC2 | – | inactive: -4.13%
Cc1ccc(SCCNC(=O)/C=C/c2ccc([N+](=O)[O-])cc2)cc1 | inconclusive [activator, partial curve, poor fit] | –
CCn1c(SC/C=C/c2ccccc2)nnc1-c1cccs1 | inconclusive [activator, single point] | –
COc1ccccc1N1CCN(C(=O)c2ccc(C(C)(C)C)cc2)CC1 | inconclusive [activator, single point] | –
CCN(CC)c1nc(C(N)=O)cc(-c2ccccc2)n1 | inconclusive [activator, single point] | –
O=C(Nc1nc(-c2cccs2)cs1)c1ccc(Cl)cc1 | inconclusive [activator, single point] | –
c1ccc(Nc2nc(NCCN3CCOCC3)nc(Nc3ccccc3)n2)cc1 | inconclusive [activator, partial curve, poor fit] | –
O=C1CSC(=S)N1N=Cc1ccc(Cl)s1 | – | inactive: 23.6%
COC(=O)c1sc(S(=O)(=O)N2CCCCC2)c(C(=O)OC)c1C | – | inactive: -0.813%
S=C(NNc1ccnc2cc(Cl)ccc12)Nc1ccc(Cl)cc1Cl | inconclusive [activator, single point] | –
COc1cc(C(=O)NCCOc2cc(C)cc(C)c2)c(Br)c(OC)c1OC | inconclusive [activator, single point] | –
CNC(=O)c1cc2cc(Br)ccc2s1 | – | inactive: 2.69%
Cc1ccc(NC(=O)c2ncn(CCCNCC3CCCO3)n2)cc1C (centres undefined) | inconclusive [activator, partial curve, poor fit] | –
OC(c1ccc(Cl)cc1)c1nnc(-c2ccccc2)o1 (centres undefined) | inconclusive [activator, single point] | –
Cc1ccc(-n2nc3c(=O)n(CCCC(=O)NCc4ccccc4C)nc(C)c3c2C)cc1 | – | inactive: 1.34%
Cc1ccc(C)c(NC(=O)CSc2nnc(CCNC(=O)OC(C)(C)C)o2)c1 | inconclusive [activator, full curve, poor fit] | –
O=C(NCCCN=C1NS(=O)(=O)c2ccccc21)c1ccc(S(=O)(=O)N2CCCCC2)cc1 | active: 23.1 µM | –
C/C(CC(=O)Nc1cccc(Cl)c1Cl)=N\NC(=O)C(=O)NC1CCCCC1 | inconclusive [activator, single point] | –
CN(C)c1cccc(C(=O)Nc2nnc(Cc3ccccc3)s2)c1 | – | inactive: 14.4%
O=C(NCc1ccccn1)c1cccc(S(=O)(=O)N2CCc3ccccc32)c1 | inconclusive [activator, single point] | –

Structure (SMILES) | Potency | activity, positive = re-replication
CCc1cc(C(N)=S)ccn1 | inactive | –
COCCn1c(=O)[nH]c2cc(C(=O)N3CCN(c4cccc(C(F)(F)F)c4)CC3)ccc2c1=O | inconclusive [activator, single point] | –
CC(C)(C)c1ccc(C(=O)NC(=S)NNC(=O)c2cccs2)cc1 | inconclusive [activator, single point] | –
CCOc1cc(C2NC(=O)NC2=O)ccc1O (centres undefined) | – | inactive: -4.57%
O=C1/C(=C\c2ccc([N+](=O)[O-])cc2)CS(=O)(=O)C/C1=C/c1ccc([N+](=O)[O-])cc1 | inconclusive [activator, full curve, poor fit] | –
Cc1ccccc1CN1CCN(c2ccc(S(=O)(=O)N3CCCC3)cn2)CC1 | inconclusive [activator, single point] | –
Cc1cccc(C(=O)OC(C)C(=O)Nc2ccc(S(=O)(=O)N3CCCC3)cc2)c1O (centres undefined) | inconclusive [activator, single point] | –
O=C1NCCC/C1=N\Nc1ccc(Br)cc1 | inconclusive [activator, full curve] | –
N=c1c(S(=O)(=O)c2ccc(Br)cc2)cc2c(=O)n3ccccc3nc2n1CCN1CCOCC1 | active: 16.4 µM | –
C=CCn1c(=S)sc2c(=O)[nH]c(C)nc21 | inconclusive [activator, single point] | –
Cc1cc(N2CCN(C)CC2)nc2ccc(NC(=S)N3CCCCCC3)cc12 | inconclusive [activator, partial curve, poor fit] | –
NC(=S)n1[nH]c(-c2ccc([N+](=O)[O-])cc2)c(N=Nc2cccc([N+](=O)[O-])c2)c1=O | – | inactive: -14.4%
Cc1cc(C(C)(C)C)cc(C)c1C[n+]1ccc2ccccc2c1 | inconclusive [activator, single point] | –
CCOC(=O)c1ccc2ncc(C(=O)OCC)c(NCc3ccco3)c2c1 | inconclusive [activator, partial curve, poor fit] | –
COCCN(C(=O)COC(=O)c1cccs1)c1c(N)n(Cc2ccccc2)c(=O)[nH]c1=O | – | inactive: 4.98%
N#Cc1cccnc1N1CCN(C(=O)c2ccc3c(c2)S(=O)(=O)c2ccccc2C3=O)CC1 | inconclusive [activator, single point] | –
COc1ccc2c(c1)c(C(=O)N/N=C/c1ccc(Br)cc1)c(C)n2C | active: 13 µM | –
COC(=O)CC/C(O)=C1\C(=O)CC(C)(C)CC1=Nc1ccccc1OC | – | inactive: -2.92%
COc1ccc(N(CC(=O)NC2CCCC2)C(=O)Cn2nnc(-c3ccc(F)cc3)n2)cc1 | – | inactive: 4.95%
CCOc1ccc(OCc2cccc(C(=O)Nc3ccc(CN4CCCCC4)cc3)c2)cc1 | inconclusive [activator, single point] | –
O=C(Nc1cccc(Cl)c1)N(CCN1CCOCC1)Cc1cccc(Cl)c1 | inconclusive [activator, single point] | –
Cc1cc(C)n(CCCNC(=O)C2CC(=O)N(Cc3ccccc3)C2)n1 (centres undefined) | – | inactive: -2.25%
